This is one part of the list.

This test addresses T1, OsWOX13 (Oryza sativa, UniProt Q5QMM3 1-267).
T1 sequence: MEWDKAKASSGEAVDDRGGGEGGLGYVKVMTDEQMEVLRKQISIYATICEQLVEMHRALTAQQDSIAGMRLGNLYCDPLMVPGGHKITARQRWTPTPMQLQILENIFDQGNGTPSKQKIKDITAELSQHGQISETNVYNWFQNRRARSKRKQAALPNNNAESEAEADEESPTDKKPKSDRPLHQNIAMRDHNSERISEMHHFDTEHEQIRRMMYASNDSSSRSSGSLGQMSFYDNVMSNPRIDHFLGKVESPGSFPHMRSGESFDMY
The test is described as follows: protein-binding microarray (RPBM); PBS, 2% BSA, 51.3 ng/ul salmon testes DNA, 50 uM zinc acetate, 200 nM TF, 25 C, 1 h; high values mean tight binding. Particulars: protein: recombinant; tags: N-terminal polyhistidine and DsRed monomer fusion (pET32a); label: CyDye5-dUTP incorporated in the synthesized complementary strand; 3' TTTTT single-stranded linker to array surface; dsDNA, one strand shown. The method, boiled down: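 An Axon 4000B scanner gave the binding signal as per-feature fluorescence intensity in arbitrary units. This followed washing of a custom Agilent array that had been incubated for 1 h at 25 °C with 200 nM protein in PBS, 2% BSA, salmon testes DNA and 50 µM zinc acetate. The proteins were transcription factors fused at the N-terminus to polyhistidine and DsRed, expressed in E. coli BL21-CodonPlus and purified on Ni–NTA.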
“TTATCAATAATAATTGCCCGTGCAAAGCATGAGTTGATGGCGGAGTCACCTAGTGCAG”: the binding signal was 5280 fluorescence intensity (a.u.).
“TAGGTTAAATTTGAACTTACATGTTTGTGACGTGATACATCGGAGTCACCTAGTGCAG”: the binding signal is 3750 fluorescence intensity (a.u.).
Consider “AAGAGAGACAGATTTAAACCAGCTCAGCCAATCCCCTCCCCGGAGTCACCTAGTGCAG”, for which the binding signal was 4530 fluorescence intensity (a.u.).
To “TGTGATTGCACATATATTTTCCTATTCCACATATTCCACACGGAGTCACCTAGTGCAG” belongs 34000 fluorescence intensity (a.u.); to “ATATAATTAAAGCACAAACTGAAGGAGATCGAAACCAAAACGGAGTCACCTAGTGCAG”, 10800 fluorescence intensity (a.u.); to “TTTACATGATATAACTGAAACAAGTCTCTATTGCAATTAGCGGAGTCACCTAGTGCAG”, 4640 fluorescence intensity (a.u.).
To “GGCACATGGAAATGCTGATTGAGACCACTGTAACTTCTGCCGGAGTCACCTAGTGCAG” belongs 20300 fluorescence intensity (a.u.); to “TCAACTAAACTTATAATTTTAGCGTGAAGTAAACACACCCCGGAGTCACCTAGTGCAG”, 3760 fluorescence intensity (a.u.); to “CGGATTGGTAAAACCGGGACTACAGAAGGTTATGAACCGGCGGAGTCACCTAGTGCAG”, 3150 fluorescence intensity (a.u.).
The figure for “GCATTAGTTAATTGGCTTTATTCAACCTGGATTGTTTAAGCGGAGTCACCTAGTGCAG” is 24400 fluorescence intensity (a.u.); for “CTTGATTTGCTTATGTAGTACTACTTCACCCGGCCCGTGCCGGAGTCACCTAGTGCAG” it is 28500 fluorescence intensity (a.u.); for “TTTTATTGACTAATTTATGGGGTTTGTTTTGCCACTTTTGCGGAGTCACCTAGTGCAG” it is 36800 fluorescence intensity (a.u.).
On to “TCTAATGGAAGATTTGAAGAAAGAGTGTATATGTGTGCATCGGAGTCACCTAGTGCAG”, for which the binding signal is 10200 fluorescence intensity (a.u.).
To “ATTAATATGATTAAATAGAAATTAGTTACTCTCTTTGTCCCGGAGTCACCTAGTGCAG” belongs 28500 fluorescence intensity (a.u.).
As to “GAGACGAATTTATTAAGCCTAATTAATTCATTATTAGCACCGGAGTCACCTAGTGCAG”, the binding signal is 10800 fluorescence intensity (a.u.).
To “AAGCTTGATGGGAATGATGATACCAATCTGACGGCCGAGACGGAGTCACCTAGTGCAG” belongs 14500 fluorescence intensity (a.u.); to “GAAATGTGAATGACTATCTAGATTAGGATTTAGGAACCAGCGGAGTCACCTAGTGCAG”, 6180 fluorescence intensity (a.u.); to “ATTGATTGGCTGAGCTCCAGCTCCAGGAGGGGTGGAGTTGCGGAGTCACCTAGTGCAG”, 42300 fluorescence intensity (a.u.).
The figure for “ATAATCTGTTAATTTCAGTAAGTCTCACCTTATATGCTTCCGGAGTCACCTAGTGCAG” is 5580 fluorescence intensity (a.u.); for “CATACATAATGTTTATTACCAATCATATAACTCTGGTTTGCGGAGTCACCTAGTGCAG” it is 15500 fluorescence intensity (a.u.); for “ACATGATTTGTGCTCCATGACCTCTTTCTTCTATTATCTACGGAGTCACCTAGTGCAG” it is 18600 fluorescence intensity (a.u.).
To “CAAGTTCCAATCAGATTTTCAGCTGGTCACTGTCTTGCTGCGGAGTCACCTAGTGCAG” belongs 6810 fluorescence intensity (a.u.); to “CTCATTTACTTACAAATAGTATCAATCATGCAATTTGGTTCGGAGTCACCTAGTGCAG”, 6100 fluorescence intensity (a.u.).
For “TTTGTTCTAATCATCCTTCGATTGGGTTGGGTTGAGCAATCGGAGTCACCTAGTGCAG”, the binding signal is 4470 fluorescence intensity (a.u.).
The figure for “ATCATACGTAATTGTTAGTAAGACGCAAGACCATGTTATGCGGAGTCACCTAGTGCAG” is 6230 fluorescence intensity (a.u.); for “GAAAACACCTGATTTGTTTATTGAAGTTCGGACCCACGGACGGAGTCACCTAGTGCAG” it is 7080 fluorescence intensity (a.u.).
To “AAGATTGATATTTAGTATTAAGATAACAAGATAAGTTGTTCGGAGTCACCTAGTGCAG” belongs 28200 fluorescence intensity (a.u.).
Regarding “GTTCAAATGTAATTATTTACCACTTTATTTAATCTTAATACGGAGTCACCTAGTGCAG”, the binding signal was 5400 fluorescence intensity (a.u.).
The figure for “TTCAAGACAGCCATTTAATTAATACTTTGCACGAAACTAACGGAGTCACCTAGTGCAG” is 9920 fluorescence intensity (a.u.); for “GATCTGTCACTTGACTATCTATCACGGGAAGGCCCAGTTTCGGAGTCACCTAGTGCAG” it is 4820 fluorescence intensity (a.u.); for “ATATCTAATTAACAAGCTTCCATCGATTGATTCCCTCAGACGGAGTCACCTAGTGCAG” it is 28000 fluorescence intensity (a.u.).
In the case of “TGGTGTGGGGATTAAAGAGGATTAGAGGGGATTGAGAGAGCGGAGTCACCTAGTGCAG”, the binding signal was 3330 fluorescence intensity (a.u.).
“ATGACGAGATAAATTAAGTAAGAGGCCTATAAAGGAGTAGCGGAGTCACCTAGTGCAG”: the binding signal is 18200 fluorescence intensity (a.u.).
The figure for “GAGCTATTAGATTGGCTATAGATAAATTAGAGCTAGTAGTCGGAGTCACCTAGTGCAG” is 31600 fluorescence intensity (a.u.); for “CTATGTCTGTGTTTGATGATTGCAAGCTGATGTGGGATGGCGGAGTCACCTAGTGCAG” it is 9180 fluorescence intensity (a.u.).
The figure for “GGAGTGCAAATTAGTCCGGATTTTACTGAATATTGATAACCGGAGTCACCTAGTGCAG” is 3300 fluorescence intensity (a.u.).
To “GACACTGGATTACCAATAGACAGATGAACCATGTGTGCCCCGGAGTCACCTAGTGCAG” belongs 9810 fluorescence intensity (a.u.); to “ACCGGATGATTAATTGAGTATTCATTATTTTAGACTTGATCGGAGTCACCTAGTGCAG”, 36400 fluorescence intensity (a.u.); to “CATGTGAAAGTTTTGACTGATAGCCGATTGGGCTATTTGGCGGAGTCACCTAGTGCAG”, 4340 fluorescence intensity (a.u.).
Consider “AATTGCGTCATGATTTGACAATGTGGTGCTACAGTAAACACGGAGTCACCTAGTGCAG”, for which the binding signal is 4960 fluorescence intensity (a.u.).
On to “GTAATAAACTCATTGATGAACGGTTCAGATCATGTCCTGTCGGAGTCACCTAGTGCAG”, for which the binding signal is 7460 fluorescence intensity (a.u.).
The figure for “AGCTAACTTCATATTGGAAGAGATTGATCATTTGCATGTACGGAGTCACCTAGTGCAG” is 4080 fluorescence intensity (a.u.).

Values taken from article PMC7819943, “Rice protein-binding microarrays: a tool to detect cis-acting elements near promoter regions in rice”.
